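Results reflect a 48-hour exposure of cells in 96-well plates to compound at five concentrations. At the TGI there is no net growth.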
Assays:
Test in all cases: growth of human tumour cells (NCI), 48 h
[1] = test system: 786-0 renal
[2] = test system: A498 renal
[3] = test system: A549 NSCLC
[4] = test system: ACHN renal
[5] = test system: CAKI-1 renal
[6] = test system: CCRF-CEM leukemia
[7] = test system: COLO 205 colon
[8] = test system: DU-145 prostate
[9] = test system: HCC-2998 colon
[10] = test system: HCT-116 colon
[11] = test system: HCT-15 colon
[12] = test system: HL-60(TB) leukemia
[13] = test system: HOP-62 NSCLC
[14] = test system: HOP-92 NSCLC
[15] = test system: HS 578T breast
[16] = test system: K-562 leukemia
[17] = test system: KM12 colon
[18] = test system: LOX IMVI melanoma
[19] = test system: M14 melanoma
[20] = test system: MCF7 breast
[21] = test system: MDA-MB-231 breast
[22] = test system: MDA-MB-435
[23] = test system: MOLT-4 leukemia
[24] = test system: NCI-H23 lung
[25] = test system: NCI-H460 lung
[26] = test system: NCI/ADR-RES ovarian
[27] = test system: OVCAR-3 ovarian
[28] = test system: OVCAR-4 ovarian
[29] = test system: OVCAR-5 ovarian
[30] = test system: PC-3 prostate
[31] = test system: RPMI-8226 leukemia
[32] = test system: RXF 393 renal
[33] = test system: SF-268 CNS
[34] = test system: SF-295 CNS
[35] = test system: SF-539 CNS
[36] = test system: SK-MEL-2 melanoma
[37] = test system: SK-MEL-28 melanoma
[38] = test system: SK-MEL-5 melanoma
[39] = test system: SK-OV-3 ovarian
[40] = test system: SNB-75 CNS
[41] = test system: SR leukemia
[42] = test system: SW-620 colon
[43] = test system: T-47D breast
[44] = test system: TK-10 renal
[45] = test system: U251 CNS
[46] = test system: UACC-62 melanoma
[47] = test system: UO-31 renal

O=C1Cc2c([nH]c3ccc(C(F)(F)F)cc23)-c2ccccc2N1
TGI [1]: > 100 µM
TGI [2]: > 100 µM
TGI [3]: 95.5 µM
TGI [4]: > 100 µM
TGI [5]: > 100 µM
TGI [6]: > 100 µM
TGI [7]: > 100 µM
TGI [8]: > 100 µM
TGI [9]: > 100 µM
TGI [10]: > 100 µM
TGI [11]: > 100 µM
TGI [12]: > 100 µM
TGI [13]: > 100 µM
TGI [14]: > 100 µM
TGI [15]: > 100 µM
TGI [16]: > 100 µM
TGI [17]: > 100 µM
TGI [18]: > 100 µM
TGI [19]: > 100 µM
TGI [20]: > 100 µM
TGI [21]: > 100 µM
TGI [22]: > 100 µM
TGI [23]: > 100 µM
TGI [24]: > 100 µM
TGI [25]: > 100 µM
TGI [26]: > 100 µM
TGI [27]: > 100 µM
TGI [28]: > 100 µM
TGI [29]: > 100 µM
TGI [30]: > 100 µM
TGI [31]: > 100 µM
TGI [32]: > 100 µM
TGI [33]: > 100 µM
TGI [34]: > 100 µM
TGI [35]: > 100 µM
TGI [36]: > 100 µM
TGI [37]: > 100 µM
TGI [38]: > 100 µM
TGI [39]: > 100 µM
TGI [40]: > 100 µM
TGI [41]: > 100 µM
TGI [42]: > 100 µM
TGI [43]: > 100 µM
TGI [44]: > 100 µM
TGI [45]: > 100 µM
TGI [46]: > 100 µM
TGI [47]: > 100 µM
